Results taken from PubChem BioAssay (NCI).
Where “and” joins values, the source holds several entries; their conditions need not be identical. Equal entries are not always repeated.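 96-well plates; 48 h exposure; 5 concentrations. Endpoints by linear interpolation between flanking doses. Not reached: highest tested concentration assigned. At the GI50, growth is halved. The concentration for full growth arrest is given as TGI.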

System: NCI-H322M lung
Assay: growth of human tumour cells (NCI), 48 h

COc1cc(C)c(-c2ccc(=O)c(OC)cc2C)c(OC)c1OC was tested, and the GI50 was > 100 µM and 59.6 µM and the TGI was > 100 µM.

NC(N)=Nc1ccc(Oc2cccc(Nc3ccc(Br)c(C(F)(F)F)c3)c2)cc1 showed a GI50 of 1.63 µM and a TGI of 3.07 µM.

Cc1ccc(N2CCN(C3=C(Cl)C(=O)c4ncccc4C3=O)CC2)cc1 was tested, and the GI50 was 8.7 µM and the TGI was 21 µM.
